# Assay results reported in the supplement of paper PMC11417369.
# ± gives the standard deviation of the averaged measurements. This is one part of the list.
# Test system: PfAP2-I AP2 domain 3 (GST-tagged)
# Assay: gcPBM binding intensity (ln(normalized median fluorescence intensity)); higher = stronger DNA binding
# Procedure, shortened: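 GST-tagged P. falciparum DNA-binding domains, expressed in E. coli (about 25 μg on average), were applied for 1 h to an Agilent 4 × 180k array of primer-extended double-stranded 36-bp intergenic genomic probes plus negative controls. The binding buffer was 1× PBS with 1% milk, 0.2 mg/ml BSA, 0.5% salmon testes DNA and 0.03% Triton X-100. Bound protein was detected with Alexa488 anti-GST antibody and scanned at 488 nm. Binding intensity is the highest Masliner-normalised natural-log median intensity across replicate spots of either probe orientation.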
row,Sequence,gcPBM binding intensity (ln)
1,ATTTGACACGTATATGCACACACCCGTAAGTGTCCA [CACACA_site8891],9.67 ± 0.071
2,TATTAACTCAATAGCGCACACTTTTAATATTTTATA [CACACA_site4973],10.1 ± 0.35
3,TCATAAAAAGGAATCTTTAAGATATTTTATAAGCTC [XGTACX_negctrl_site18],7.43 ± 0.69
4,TTATAAATTTTTAATAGTACATAAAATTAAAGGTAA [XGTACX_site760],7.84 ± 0.28
5,ATGTGATAATTTAGGAGTACTGTCATAAGCATTTCT [XGTACX_site3091],7.74 ± 0.59
6,AGTGCATAATATTTATGTACGTATCACATATATTTT [XGTACX_site5166],11.3 ± 0.83
7,AATAAATGTCTGTTAATGCACACGATATGTCTATAT [CACACA_site2351],10.8 ± 0.57
8,TTTCTTTATTTATAATAATTTTTTATTAAAAATAGA [CACACA_negctrl_site1610],7.31 ± 0.37
9,TTCATTAAAACGAATACACACATAAATATATAAAAG [CACACA_site4824],7.93 ± 0.33
10,AAATATATATATATTACACACTATATATTTATTTAT [CACACA_site681],7.72 ± 0.45
11,TGTATACCTTAATATACACACATACATATATATATA [CACACA_site8370],9.27 ± 0.35
12,GGATATATTATATGTACACACATATATAACGGATAT [CACACA_site1309],8.03 ± 0.52
13,CAACAAAAGAAACACACACACACAAACACAAAAAAA [CACACA_site3389],8 ± 0.37
14,ATATATAAATATAGCATACACACAAAAAAATAAAAT [CACACA_site2332],7.84 ± 0.57
15,ATATACATATTTTTGACACACATTAGGAAAATATAT [CACACA_site4123],7.79 ± 0.57
16,ATGTAATAAATACTACGTACATATATATGTGTTAAT [XGTACX_site3265],7.85 ± 0.47
17,TATTATTTATATGATACACACGTACATATACACATA [CACACA_site9275],7.81 ± 0.41
18,TAACAAATATTATTTTGTACATAATATATATATATA [XGTACX_site6898],8.88 ± 0.54
19,AATACACACCTGTGGGTGCTTATAATAAGCCACAAA,10.2 ± 0.26
20,TATTTTTTTATTTATTGTACTTTAAAAAAAATTAAA [XGTACX_site6167],7.97 ± 0.4
21,ATATATTTATATTATACACACAAAAATATTTTGTAT [CACACA_site6262],7.61 ± 0.57
22,TATATATATTAATTTATTTATTTGTTTATTTATTTA [CACACA_negctrl_site185],7.75 ± 0.53

row,Sequence,gcPBM binding intensity (ln)
1,TTATAAAAATATTACGCACACACAAACTTATTCATT [CACACA_site1970],8.87 ± 0.042
2,ATATAATAATATTATACATGCAAAATATGTTCTTCA [TGCATGCA_site115],7.83 ± 0.64
3,ATCGCATATACATTATATTTTATAATAATTATTTTT [GTGCAC_negctrl_site48],8.03 ± 0.48
4,AGACTATCATTTTTTTAACACACAAAAAAAATAAAA [CACACA_site9173],7.86 ± 0.39
5,TGTATACACATATGTACACACATATAGATGTATATG [CACACA_site7447],7.77 ± 0.14
6,ATAATGTATATTATTGCACACATATATAAAATTATG [CACACA_site8280],10 ± 0.64
7,TAAATAAATACATACACACACATACCTATATTTATA [CACACA_site7466],7.71 ± 0.47
8,AATATAAATATAAATATAAATATATATATATATATA [TGCATGCA_negctrl_site603],9.12 ± 0.61
9,TTTTATAAAAACAAAAACAAAGGCACTTTCTAAAGA [XGTACX_negctrl_site130],8.63 ± 0.28
10,ATATAAAATATGAGTAGTACATATTTTCTCATCTTA [XGTACX_site8595],7.55 ± 0.38
11,GGGAAACGATTTAATACACACACGTATTATATATAT [CACACA_site1160],8.48 ± 0.59
12,CACAAAAGTAAGCACGCACACACAACATGAAATAAA [CACACA_site7938],8.22 ± 0.34
13,CATTTTTTGTAAAATCGTACATATACATAAAGTGGT [XGTACX_site3423],7.89 ± 0.35
14,AAAGACAAAAGGAATTGTACATAATATATAAAATAT [XGTACX_site2923],7.58 ± 0.71
15,AATTTTATTTAAAGTGCATGTAAAATTAAAACTTTT [TGCATGCA_site989],8.88 ± 0.43
16,TATGAATTTATCTACAACATTTGAAATAAATTAAAA [CACACA_negctrl_site79],7.48 ± 0.37
17,TATTTGGGTATTTTTACACACATTAATATATATATA [CACACA_site9114],8.925 ± 0.049
18,AAAGATAATAATATGCGTACATAAAAATATATGATA [XGTACX_site6884],7.91 ± 0.29
19,ATAATGGAAAAAAAATATAATAATACGAAATAGGAA [TGCATGCA_negctrl_site64],8.06 ± 0.5
20,TTTTTTTAATAAATTTATAACAATATGATAGGTGAC [CACACA_negctrl_site1783],8.21 ± 0.45
21,TGAATCAATTGTTGCTGTACATAAGGTATACAATAA [XGTACX_site5127],7.97 ± 0.52
22,AGTTAAATGAATCAATACATAAATATGTATATATAT [TGCATGCA_negctrl_site539],8.34 ± 0.73

row,Sequence,gcPBM binding intensity (ln)
1,TAATTACCATATGGTACACACATATATATCTGTATA [CACACA_site5849],8.01 ± 0.4
2,AATAATATCTGAAAATGTACATTTTATTATAAACAT [XGTACX_site8441],7.79 ± 0.59
3,AAGAAGAGTTATTGTAGTACATTTTTAAATGTAATA [XGTACX_site7664],7.73 ± 0.34
4,AAGAATTATAGAAACACACATACATACAGACATACA [CACACA_site1943],7.79 ± 0.34
5,ATGCAAACTAAAAGACGTACAGAAAAGTATCATACT [XGTACX_site8766],7.88 ± 0.61
6,TGATTATTTTATATTTGTACACATATCATATAAAAA [XGTACX_site5868],8.1 ± 0.26
7,ACATAATATTGAAGAAGTACAAATTTTATTTATTAT [XGTACX_site4113],7.68 ± 0.49
8,ACGTTTTTGAGTAGTACACACACAATAAGGATGGAT [CACACA_site9044],8.36 ± 0.54
9,TCATTATTATATAATTGTACATAATAATTATATCCA [XGTACX_site1801],7.62 ± 0.39
10,AATATAATATATATTAGTACATATATATATATATAT [XGTACX_site870],9.3 ± 0.66
11,CCTCATATTATAGACACACACAAAAAAAATAAAAAA [CACACA_site180],7.82 ± 0.44
12,ATGTATGTGTATATATGTACATAATATATATCTTTT [XGTACX_site8666],7.92 ± 0.35
13,AGTACATTATAGAATACACACCTATACATTTATATA [CACACA_site6391],7.71 ± 0.57
14,ATTTTATTTTTTCACACACACATATATATATATATA [CACACA_site3334],9.54 ± 0.4
15,CCCAGGAATATAAAATGTACATAAAAAATACAAATT [XGTACX_site1708],8.27 ± 1.4
16,TTTTTTTTTTTTGGATGTACTTAATGAAAATGTTAC [XGTACX_site8980],8.09 ± 0.52
17,TAAGCACAAGCACAAGCACACATTTATATATATATA [CACACA_site883],9.13 ± 0.042
18,ATAATAATATAAAAATGTACATATATTTATAATTGT [XGTACX_site3429],7.71 ± 0.54
19,TCTTTGTATATATGTTCATTTGTAATATATATTCAT [TGCATGCA_negctrl_site467],7.47 ± 0.79
20,TATTTGTGAAGAAATTGTACTCATATCTACATTTAT [XGTACX_site2245],7.63 ± 0.26
21,CTCACAATACTTACATGTACATATTATATATATAAA [XGTACX_site1880],8.28 ± 0.49
22,GTTGAAATAAAATTAGTGCATATATAAATATATATA,10.2 ± 0.17

row,Sequence,gcPBM binding intensity (ln)
1,AACTAATAGTATATTACATGCAAAAGTAAAAGTAAA [TGCATGCA_site411],8.02 ± 0.78
2,ACTGAAAAAAGAAATACACACATTCTGGATCAGATA [CACACA_site7760],7.49 ± 0.63
3,TCATTCTTGTGTTTATGTACACATATTTATATTGTA [XGTACX_site710],7.79 ± 0.4
4,TTATCATTTTTGGAATGTACTTACATTAAATATTTA [XGTACX_site4034],7.63 ± 0.26
5,TATATGCAAAATGTCACACATGTGATAAATACATAT [CACACA_site4302],7.94 ± 0.83
6,GGAACCATCCAAAAAAAAAAAAAAAATAATAATAAT [CACACA_negctrl_site383],7.5 ± 0.85
7,ACATGTACAGAAATTTATATATATATATATATATAT [CACACA_negctrl_site1584],9.38 ± 0.5
8,ATTATTATGTATTGCCGTACACATATTATCACAGAA [XGTACX_site3740],8.05 ± 0.49
9,TATAAATAAACATTTACACACTCTTATAATAAATAT [CACACA_site1679],7.52 ± 0.44
10,TCTTCATATATAATTGTACACACAAAAACGACATTG [CACACA_site8645],8.15 ± 0.49
11,TATTATAATTAATATACACACGCTTATATATATATA [CACACA_site75],9.105 ± 0.021
12,TTTTTATAAAATTTTATGAGCTCGGAAAAAATAAAC [GTGCAC_negctrl_site637],8.49 ± 0.48
13,TAATTATTTGCCCTTACTCTGAACATTCGGAATTTA [CACACA_negctrl_site1278],8.15 ± 0.28
14,TTTTAATATTAAGATGTCTTTTACGTTTATTTTGTA [CACACA_negctrl_site765],7.58 ± 0.73
15,ATTTACGCGCTTATTACACACACATACAAATAAGGA [CACACA_site9157],8.41 ± 0.25
16,TTCTTTTTAAATTACACACACATATAAATATGTATA [CACACA_site7618],7.89 ± 0.58
17,ATCTGCATATATATATGTACATATTTTAGAATGCAC [XGTACX_site708],9.71 ± 0.38
18,TTTTTTTTATTTTGTTGTACGCTTATTTGTATATAT [XGTACX_site7325],8.04 ± 0.52
19,TTTATGTGTTATAAATGTACATAATATAATTCGTAT [XGTACX_site3845],7.77 ± 0.48
20,TTATCTATAAATACGAGTACGCAAAATCATATAATA [XGTACX_site2447],7.91 ± 0.42
21,ATATAAGGATAACCTAGTACATATTATATGAAACAA [XGTACX_site8459],7.74 ± 0.38
22,AAAATAAATAAATAAATATATATATATATATATATA [TGCATGCA_negctrl_site558],9.29 ± 0.44
